Assay results from a compilation of properties of binary mixtures (doi:10.1021/acs.jced.3c00525).
The densities may have been worked out from excess volumes.

Assay: xn = mol fraction of the nth substance listed
Conditions: 100 kPa

CC(N)CN (centres undefined) + CC(C)CO
mass density [kg/m3]
Conditions	298.15 K	303.15 K	308.15 K	313.15 K	318.15 K
x2 = 0	–	853.6	–	844.5	839.7
x2 = 0.05	855.8	851.6	847.2	842.4	838.1
x2 = 0.1	853.9	849.4	845	840.5	836.2
x2 = 0.15	851.8	847.4	–	838.6	834.3
x2 = 0.2	–	845.2	840.7	836.3	831.9
x2 = 0.25	847.5	843.2	838.6	834.3	830
x2 = 0.3	–	841.3	836.8	832.6	–
x2 = 0.35	–	839.5	834.8	830.5	826.2
x2 = 0.4	841.3	837.1	832.6	828.3	824.1
x2 = 0.45	839.1	834.9	830.5	826.4	821.9
x2 = 0.5	836.7	–	828.2	824	–
x2 = 0.55	834.2	–	825.5	821.3	817.1
x2 = 0.6	831.6	827.5	822.9	818.8	814.4
x2 = 0.65	828.8	–	820.2	816	811.9
x2 = 0.7	825.6	821.4	–	812.9	808.7
x2 = 0.75	822	817.9	813.6	809.6	805.4
x2 = 0.8	817.9	813.8	809.6	805.6	801.5
x2 = 0.85	–	809.7	805.4	801.4	797.7
x2 = 0.9	808.8	805	800.6	796.6	792.7
x2 = 0.95	803.4	799.8	–	791.5	787.7

CC(C)CO + CC(N)CN
x1 = 1
Conditions	mass density [kg/m3]
303.15 K	794.2
308.15 K	790.5
313.15 K	786.3
318.15 K	782.2

CCC(C)O (centres undefined) + CC(N)CN
x1 = 1
Conditions	mass density [kg/m3]
298.15 K	802.6
303.15 K	798.5
308.15 K	798.5
313.15 K	789.6
318.15 K	784.9

CCCCO + CC(N)CN
x1 = 1
Conditions	mass density [kg/m3]
298.15 K	805.9
313.15 K	794.5
318.15 K	790.6

CC(N)CN (centres undefined) + CCC(C)O
mass density [kg/m3]
Conditions	298.15 K	303.15 K	308.15 K	313.15 K	318.15 K
x2 = 0	858.6	853.6	853.6	844.5	839.7
x2 = 0.05	–	852.2	–	842.4	837.4
x2 = 0.1	–	850	850	840.2	835.3
x2 = 0.15	852.4	848.4	848.4	838.1	833.1
x2 = 0.2	850.9	–	845.9	836.2	831.1
x2 = 0.25	847.8	843.2	843.2	–	829
x2 = 0.3	845.7	841	–	831.7	827
x2 = 0.35	843.6	838.9	–	–	824.5
x2 = 0.4	841.1	836.4	836.4	826.9	822.3
x2 = 0.45	838.9	834.3	834.3	–	820.1
x2 = 0.5	836.4	831.8	831.8	822.3	817.4
x2 = 0.55	833.6	829	829	–	815.1
x2 = 0.6	831.4	826.8	826.8	817.4	812.4
x2 = 0.65	–	823.6	823.6	814.4	809.7
x2 = 0.7	825.2	–	820.7	811.4	806.8
x2 = 0.75	–	818	818	808.6	803.7
x2 = 0.8	819.2	814.8	814.8	–	–
x2 = 0.85	815.4	811	811	801.8	797.1
x2 = 0.9	811.9	–	807.2	798.1	793.3
x2 = 0.95	807.6	803.3	–	794.3	–

CC(N)CN (centres undefined) + CCCCO
mass density [kg/m3]
Conditions	298.15 K	303.15 K	308.15 K	313.15 K	318.15 K
x2 = 0	858.6	853.6	849.8	844.5	839.7
x2 = 0.05	858.1	–	–	–	838
x2 = 0.1	856.6	851.7	846.6	841.5	–
x2 = 0.15	855.3	850.6	845.5	840.2	835.4
x2 = 0.2	853.5	848.7	843.7	839.1	833.8
x2 = 0.25	–	–	–	837.6	832.2
x2 = 0.3	849.8	845.2	–	835.7	830.8
x2 = 0.35	848.4	843.8	838.9	834.2	–
x2 = 0.4	846.8	–	837.3	–	827.6
x2 = 0.45	844	839.3	834.5	829.7	825.1
x2 = 0.5	842.1	–	832.7	–	823.2
x2 = 0.55	839.2	834.9	830.1	825.4	821.1
x2 = 0.6	836.3	832.1	828.8	823.9	819.1
x2 = 0.65	834.7	–	825.6	821	816.5
x2 = 0.7	831.9	827.5	822.9	818.4	–
x2 = 0.75	828.7	824.5	819.9	815.4	811.1
x2 = 0.8	825.2	–	–	811.9	807.8
x2 = 0.85	821.1	816.9	812.4	808	–
x2 = 0.9	816.5	812.3	808	803.7	–
x2 = 0.95	–	807.8	803.6	–	795.5
